For 13 substances, binding results are on record in article PMC4598844.

Protein sequences, listed by entry. Tags and fused reporters are not part of them. Lines headed by an entry give the natural chain unless they say otherwise; changes in a name come on top.
UniProt Q92560: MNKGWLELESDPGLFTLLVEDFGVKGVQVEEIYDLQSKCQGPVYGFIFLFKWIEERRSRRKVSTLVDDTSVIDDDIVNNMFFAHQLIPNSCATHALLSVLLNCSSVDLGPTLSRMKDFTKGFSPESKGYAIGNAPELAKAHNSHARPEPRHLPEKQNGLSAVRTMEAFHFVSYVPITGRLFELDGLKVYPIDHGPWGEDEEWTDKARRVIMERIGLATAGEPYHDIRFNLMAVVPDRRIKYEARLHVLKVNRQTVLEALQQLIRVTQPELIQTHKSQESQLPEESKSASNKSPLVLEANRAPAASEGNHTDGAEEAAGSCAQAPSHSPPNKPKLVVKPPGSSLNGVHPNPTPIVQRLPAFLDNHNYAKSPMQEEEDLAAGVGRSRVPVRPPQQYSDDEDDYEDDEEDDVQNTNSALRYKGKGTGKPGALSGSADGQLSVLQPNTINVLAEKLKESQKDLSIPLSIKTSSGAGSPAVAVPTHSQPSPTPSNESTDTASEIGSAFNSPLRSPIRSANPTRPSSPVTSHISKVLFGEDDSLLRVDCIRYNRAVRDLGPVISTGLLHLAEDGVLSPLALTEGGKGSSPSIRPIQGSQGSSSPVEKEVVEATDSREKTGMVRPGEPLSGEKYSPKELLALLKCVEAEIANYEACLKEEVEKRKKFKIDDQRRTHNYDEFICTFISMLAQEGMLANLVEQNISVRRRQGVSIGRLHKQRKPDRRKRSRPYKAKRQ
UniProt Q13887: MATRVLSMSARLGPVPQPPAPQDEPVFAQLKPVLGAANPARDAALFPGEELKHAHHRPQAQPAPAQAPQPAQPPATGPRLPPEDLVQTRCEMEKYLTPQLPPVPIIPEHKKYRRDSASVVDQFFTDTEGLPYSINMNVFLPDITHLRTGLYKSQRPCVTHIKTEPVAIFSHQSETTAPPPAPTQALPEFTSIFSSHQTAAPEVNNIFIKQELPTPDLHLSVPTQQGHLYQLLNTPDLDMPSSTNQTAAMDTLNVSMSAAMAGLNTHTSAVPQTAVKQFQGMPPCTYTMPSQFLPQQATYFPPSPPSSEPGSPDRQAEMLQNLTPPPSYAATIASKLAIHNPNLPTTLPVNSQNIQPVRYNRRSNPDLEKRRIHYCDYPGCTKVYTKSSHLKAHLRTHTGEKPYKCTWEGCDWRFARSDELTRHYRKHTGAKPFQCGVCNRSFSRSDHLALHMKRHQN
UniProt P01106: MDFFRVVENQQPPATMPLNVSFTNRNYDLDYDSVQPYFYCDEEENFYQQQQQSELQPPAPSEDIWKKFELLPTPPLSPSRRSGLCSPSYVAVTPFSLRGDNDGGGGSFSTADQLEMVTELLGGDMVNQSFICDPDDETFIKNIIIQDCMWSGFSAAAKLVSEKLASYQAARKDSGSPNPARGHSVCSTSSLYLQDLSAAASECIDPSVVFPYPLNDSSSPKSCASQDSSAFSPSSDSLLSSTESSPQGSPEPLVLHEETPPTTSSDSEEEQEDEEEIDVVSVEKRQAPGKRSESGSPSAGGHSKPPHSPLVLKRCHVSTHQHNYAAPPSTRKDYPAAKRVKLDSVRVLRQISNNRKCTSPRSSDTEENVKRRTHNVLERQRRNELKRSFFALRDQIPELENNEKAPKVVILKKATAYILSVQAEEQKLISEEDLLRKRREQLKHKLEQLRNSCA

No constants are given. Whether binding was seen depends on the method and setting. Binding seen in cells or lysates may run through a third protein. Some entries that bind do so weakly or less than the wild type.

Assay [1] deals with GST-fused full-length BAP1 (1–729) (human) (UniProt Q92560). The assay can be described thus: pull-down; Flag-tagged full-length or deletion constructs of KLF5 and GST-BAP1 transfected into HEK293FT cells; GST-BAP1 pulled down with glutathione beads; KLF5 proteins detected by WB.
Assay [2] has as its target KLF5-3 × Flag, full-length KLF5 (1–457) (human) (UniProt Q13887). Description: co-IP; GST-fused full-length or deletion constructs of BAP1 co-expressed with KLF5-3 × Flag in HEK293FT cells; KLF5-3 × Flag immunoprecipitated with Flag-M2 beads; BAP1 proteins detected by WB.
The target is the same in assay [3]. The assay can be described thus: co-IP; KLF5-3 × Flag and BAP1 co-transfected into HEK293FT cells; KLF5 immunoprecipitated with anti-Flag (Flag-M2 beads); partners detected by WB.
Assay [4] deals with endogenous BAP1 (human (endogenous in MCF10A and HCC1806)) (UniProt Q92560). The assay can be described thus: co-IP; endogenous proteins; HCC1806 cell lysates immunoprecipitated with the anti-BAP1 antibody, IgG as negative control; partners detected by WB.
Assay [5] has the same target. The assay can be described thus: co-IP; endogenous proteins in MCF10A cells; BAP1 immunoprecipitated with the anti-BAP1 antibody, IgG as negative control; KLF5 detected by WB; also with serum stimulation.

In the case of “KLF5-3 × Flag C terminus (373–457) (from UniProt Q13887 373-457) (domain or fragment)”, in assay [1], the binding entry is “binds”. As to “GST-fused full-length BAP1 (1–729) (from UniProt Q92560 1-729) (enzyme)”, the binding entry in assay [2] is “binds”. In the case of “KLF5-3 × Flag N terminus (1–372) (from UniProt Q13887 1-372) (domain or fragment)”, the binding result in assay [1] is listed as “binds”.

Regarding “KLF5-3 × Flag, full-length KLF5 (1–457) (from UniProt Q13887 1-457)”, the binding entry in assay [1] is on record as “binds”.

“GST-fused middle part of BAP1 (241–596) (from UniProt Q92560 241-596) (domain or fragment)”: the binding result in assay [2] was “no binding”. The same measure, in the same setting: the value for “GST-fused BAP1 N terminus (1–240) (from UniProt Q92560 1-240) (domain or fragment)” was “binds”. In the case of “BAP1 (BRCA1-associated protein 1), exogenous (from UniProt Q92560 1-729) (enzyme)”, the binding entry in assay [3] is recorded as “binds”. Take “KLF5-3 × Flag C terminus (201–457) (from UniProt Q13887 201-457) (domain or fragment)”: the binding entry in assay [1] is given as “binds”. As for “endogenous KLF5 (from UniProt Q13887 1-457)”, the binding result in assay [4] and in assay [5] was “binds” each time. “GST-fused BAP1 C terminus (597–729) (from UniProt Q92560 597-729) (domain or fragment)”: the binding entry in assay [2] is reported as “binds”.

Regarding “c-Myc protein, endogenous (from UniProt P01106 1-454)”, the binding result in assay [4] is given as “no binding”.

“KLF5-3 × Flag N terminus (1–200) (from UniProt Q13887 1-200) (domain or fragment)”: in assay [1], the binding entry is recorded as “binds”. On the same count and under the same terms, the value for “KLF5-3 × Flag middle part (201–372) (from UniProt Q13887 201-372) (domain or fragment)” was “no binding”.
